Assay results: patent publication US20200277339A1 (GENOME PROTECTION, published 2020)

target: TLR5 of the cell-based reporter assays; assay: cell-based or functional assay

| Binder | Relative EC50 vs 502, Signaling (Luc) [fold vs 502] | Relative EC50 vs 502, Signaling (LecZ) [fold vs 502] |
| --- | --- | --- |
| CBLB502 variant N45 (ligand) MRGSHHHHHHGMASMTGGQQMGRDLYDLVPRGSAKDPAGQAIANRFTSNIKGLTQASRNANDGISIAQTTEGALNEINNNLQRVRELSVQATNGTNSDSDLKSIQDEIQQRLEEIDRVSNQTQFNGVKVLSQDNQMKIQVGANDGETITIDLQKIDVKSLGLDGFNVNSPGISGGGGGILDSMGTLINEDAAAAKKSTANPLASIDSALSKVDAVRSSLGAIQNRFDSAITNLGNTVTNLNSARSRIEDADYATEVSNMSKAQILQQAGTSVLAQANQVPQNVLSLLR | 3.6 |  |
| CBLB502-485CT (ligand) MSGLRINSAKDDAAGQAIANRFTSNIKGLTQASRNANDGISIAQTTEGALNEINNNLQRVRELSVQATNGTNSDSDLKSIQDEIQQRLEEIDRVSNQTQFNGVKVLSQDNQMKIQVGANDGETITIDLQKIDVKSLGLDGFNVNSPGSTANPLASIDSALSKVDAVRSSLGAIQNRFDSAITNLGNTVTNLNSARSRIEDADYATEVSNMSKAQILQQAGLVPRGSHHHHHHG |  | 1.2 |
| CBLB502 variant NGD1 (ligand) MSKGEELFTGVVPILVELDGDVNGHKFSVSGEGEGDATYGKLTLKFICTTGKLPVPWPTLVTTLTYGVQCFSRYPDHMKRHDFFKSAMPEGYVQERTISFKDDGNYKTRAEVKFEGDTLVNRIELKGIDFKEDGNILGHKLEYNYNSHNVYITADKQGLSGRIMSGLRINSAKDDAAGQAIANRFTSNIKGLTQASRNANDGISIAQTTEGALNEINNNLQRVRELSVQATNGTNSDSDLKSIQDEIQQRLEEIDRVSNQTQFNGVKVLSQDNQMKIQVGANDGETITIDLQKIDVKSLGLDGFNVNSPGSTANPLASIDSALSKVDAVRSSLGAIQNRFDSAITNLGNTVTNLNSARSRIEDADYALVPRGSHHHHHHG |  | 58 |
| CBLB502-S33 (ligand) MRGSHHHHHHGMASMTGGQQMGRDLYDLVPRGSAKDPSGLRINSAKDDAAGQAIANRFTSNIKGLTQASRNANDGISIAQTTEGALNEINNNLQRVRELSVQATNGTNSDSDLKSIQDEIQQRLEEIDRVSNQTQFNGVKVLSQDNQMKIQVGANDGETITIDLQKIDVKSLGLDGFNVNSPGISGGGGGILDSMGTLINEDAAAAKKSTANPLASIDSALSKVDAVRSSLGAIQNRFDSAITNLGNTVTNLNSARSRIEDADYATEVSNMSKAQILQQAGTSVLAQANQVPQNVLSLLR | 1.4 |  |
| CBLB502 variant CPM217 (ligand) MSTANPLASIDSALSKVDAVRSSLGAIQNRFDSAITNLGNTVTNLNSARSRIEDADYASPGSGLRINSAKDDAAGQAIANRFTSNIKGLTQASRNANDGISIAQTTEGALNEINNNLQRVRELSVQATNGTNSDSDLKSIQDEIQQRLEEIDRVSNQTQFNGVKVLSQDNQMKIQVGANDGETITIDLQKIDVKSLGLDGFNVNLVPRGSHHHHHHG |  | 1110 |
| CBLB502 variant 470CT (ligand) MAQVINTNSLSLLTQNNLNKSQSSLSSAIERLSSGLRINSAKDDAAGQAIANRFTSNIKGLTQASRNANDGISIAQTTEGALNEINNNLQRVRELSVQATNGTNSDSDLKSIQDEIQQRLEEIDRVSNQTQFNGVKVLSQDNQMKIQVGANDGETITIDLQKIDVKSLGLDGFNVNSPGISGGGGGILDSMGTLINEDAAAAKKSTANPLASIDSALSKVDAVRSSLGAIQNRFDSAITNLGNTVTNLNSARSRIEDADYALVPRGSHHHHHHG | 44 | 38 |
| CBLB502 variant SY3CT (ligand) MSGLRINSAKDDAAGQAIANRFTSNIKGLTQASRNANDGISIAQTTEGALNEINNNLQRVRELSVQATNGTNSDSDLKSIQDEIQQRLEEIDRVSNQTQFNGVKVLSQDNQMKIQVGANDGETITIDLQKIDVKSLGLDGFNVNSPGSTANPLASIDSALSKVDAVRSSLGAIQNRFDSAITNLGNTVTNLNSARSRIEDADYALVPRGSHHHHHHG |  | 16 |
| CBLB502 variant 45CT (ligand) MAGQAIANRFTSNIKGLTQASRNANDGISIAQTTEGALNEINNNLQRVRELSVQATNGTNSDSDLKSIQDEIQQRLEEIDRVSNQTQFNGVKVLSQDNQMKIQVGANDGETITIDLQKIDVKSLGLDGFNVNSPGISGGGGGILDSMGTLINEDAAAAKKSTANPLASIDSALSKVDAVRSSLGAIQNRFDSAITNLGNTVTNLNSARSRIEDADYATEVSNMSKAQILQQAGTSVLAQANQVPQNVLSLLVPRGSHHHHHHGMASMTGGQQMGRDLYDDDDKDP | 3.5 |  |
| CBLB502 variant 33-485 (ligand) MRGSHHHHHHGMASMTGGQQMGRDLYDLVPRGSAKDPSGLRINSAKDDAAGQAIANRFTSNIKGLTQASRNANDGISIAQTTEGALNEINNNLQRVRELSVQATNGTNSDSDLKSIQDEIQQRLEEIDRVSNQTQFNGVKVLSQDNQMKIQVGANDGETITIDLQKIDVKSLGLDGFNVNSPGISGGGGGILDSMGTLINEDAAAAKKSTANPLASIDSALSKVDAVRSSLGAIQNRFDSAITNLGNTVTNLNSARSRIEDADYATEVSNMSKAQILQQAG | 11 |  |
| CBLB502 variant 33CT (ligand) MSGLRINSAKDDAAGQAIANRFTSNIKGLTQASRNANDGISIAQTTEGALNEINNNLQRVRELSVQATNGTNSDSDLKSIQDEIQQRLEEIDRVSNQTQFNGVKVLSQDNQMKIQVGANDGETITIDLQKIDVKSLGLDGFNVNSPGISGGGGGILDSMGTLINEDAAAAKKSTANPLASIDSALSKVDAVRSSLGAIQNRFDSAITNLGNTVTNLNSARSRIEDADYATEVSNMSKAQILQQAGTSVLAQANQVPQNVLSLLVPRGSHHHHHHG | 2.3 |  |
| CBLB502 variant 33ML (ligand) MSGLRINSAKDDAAGQAIANRFTSNIKGLTQASRNANDGISIAQTTEGALNEINNNLQRVRELSVQATNGTNSDSDLKSIQDEIQQRLEEIDRVSNQTQFNGVKVLSQDNQMKIQVGANDGETITIDLQKIDVKSLGLDGFNVNSPGSTANPLASIDSALSKVDAVRSSLGAIQNRFDSAITNLGNTVTNLNSARSRIEDADYATEVSNMSKAQILQQAGTSVLAQANQVPQNVLSLLVPRGSHHHHHHG | 1.5 | 1.3 |
| CBLB502 variant MF227N (ligand) MSGLRINSAKDDAAGQAIANRFTSNIKGLTQASRNANDGISIAQTTEGALNEINNNLQRVRELSVQATNGTNSDSDLKSIQDEIQQRLEEIDRVSNQTQFNGVKVLSQDNQMKIQVGANDGSPGSTANPLASIDSALSKVDAVRSSLGAIQNRFDSAITNLGNTVTNLNSARSRIEDADYATEVSNMSKAQILQQAGTSVLAQANQVPQNVLSLLVPRGSHHHHHHG |  | 159 |
| CBLB502 variant 37CT (ligand) MINSAKDDAAGQAIANRFTSNIKGLTQASRNANDGISIAQTTEGALNEINNNLQRVRELSVQATNGTNSDSDLKSIQDEIQQRLEEIDRVSNQTQFNGVKVLSQDNQMKIQVGANDGETITIDLQKIDVKSLGLDGFNVNSPGISGGGGGILDSMGTLINEDAAAAKKSTANPLASIDSALSKVDAVRSSLGAIQNRFDSAITNLGNTVTNLNSARSRIEDADYATEVSNMSKAQILQQAGTSVLAQANQVPQNVLSLLVPRGSHHHHHHGMA | 3.2 |  |

target: TLR5 of the cell-based reporter assays; assay: cell-based or functional assay; remark: another data set of the same source

| Binder | Signaling EC50 Normalized by CBLB502 [fold vs CBLB502] |
| --- | --- |
| CBLB502 mutant ME100 (ligand) MSGLRINSAKDDAAGQAIANRFTSNIKGLTQASRNANDGISIAQTTEGALNEINNNLQRVRELSVQATAGANSDSDLKSIQDEIQQRLEEIDRVSNQTQFNGVKVLSQDNQMKIQVGANDGETITIDLQKIDVKSLGLDGFNVNSPGSTANPLASIDSALSKVDAVRSSLGAIQNRFDSAITNLGNTVTNLNSARSRIEDADYATEVSNMSKAQILQQAGTSVLAQANQVPQNVLSLLVPRGSHHHHHHG | 0.6 |
| CBLB502 mutant MIXN (ligand) MSGLRINSAKDDAAGQAIANRFTSNIKGLTQASRNAADGISIAQTTEGALNEINNNLQRVRELSVQATNGTNSDSDLKSIQDEIQQRLEEIDRVSNQTQANGVKVLSQDNAMKIQVGANDGAAITIDLQKIDVKSLGLDGFNVNSPGSTANPLASIDSALSKVDAVRSSLGAIQNRFDSAITNLGNTVTNLNSARSRIEDADYATEVSNMSKAQILQQAGTSVLAQANQVPQNVLSLLVPRGSHHHHHHG | 1.5 |
| CBLB502 mutant ME110 (ligand) MSGLRINSAKDDAAGQAIANRFTSNIKGLTQASRNANDGISIAQTTEGALNEINNNLQRVRELSVQATNGTNSDSDLKAIQAEIQQRLEEIDRVSNQTQFNGVKVLSQDNQMKIQVGANDGETITIDLQKIDVKSLGLDGFNVNSPGSTANPLASIDSALSKVDAVRSSLGAIQNRFDSAITNLGNTVTNLNSARSRIEDADYATEVSNMSKAQILQQAGTSVLAQANQVPQNVLSLLVPRGSHHHHHHG | 0.7 |
| CBLB502 mutant ME42 (ligand) MSGLRINSAKADAGGQAIANRFTSNIKGLTQASRNANDGISIAQTTEGALNEINNNLQRVRELSVQATNGTNSDSDLKSIQDEIQQRLEEIDRVSNQTQFNGVKVLSQDNQMKIQVGANDGETITIDLQKIDVKSLGLDGFNVNSPGSTANPLASIDSALSKVDAVRSSLGAIQNRFDSAITNLGNTVTNLNSARSRIEDADYATEVSNMSKAQILQQAGTSVLAQANQVPQNVLSLLVPRGSHHHHHHG | 1.3 |
| CBLB502 mutant ME104 (ligand) MSGLRINSAKDDAAGQAIANRFTSNIKGLTQASRNANDGISIAQTTEGALNEINNNLQRVRELSVQATNGTNADAALKSIQDEIQQRLEEIDRVSNQTQFNGVKVLSQDNQMKIQVGANDGETITIDLQKIDVKSLGLDGFNVNSPGSTANPLASIDSALSKVDAVRSSLGAIQNRFDSAITNLGNTVTNLNSARSRIEDADYATEVSNMSKAQILQQAGTSVLAQANQVPQNVLSLLVPRGSHHHHHHG | 1 |
| CBLB502 mutant ME117 (ligand) MSGLRINSAKDDAAGQAIANRFTSNIKGLTQASRNANDGISIAQTTEGALNEINNNLQRVRELSVQATNGTNSDSDLKSIQDEIQARLAEIDRVSNQTQFNGVKVLSQDNQMKIQVGANDGETITIDLQKIDVKSLGLDGFNVNSPGSTANPLASIDSALSKVDAVRSSLGAIQNRFDSAITNLGNTVTNLNSARSRIEDADYATEVSNMSKAQILQQAGTSVLAQANQVPQNVLSLLVPRGSHHHHHHG | 0.8 |
